Test results from the RNAGym collection of RNA variant scans (doi:10.1073/pnas.2313332121).
Variants at the floor of the assay are shown more often than the library holds them.

B1: TPR 5TU (parent)
chain: GGAUCUUCUCGAUCUAACAAAAAAGACAAAUCUGCCACAAAGCUUGAGAGCAUCUUCGGAUGCAGAGGCGGCAGCCUUCGGUGGCGCGAUAGCGCCAACGUUCUCAACUAUGACACGCAAAACGCGUGCUCCGUUGAAUGGAGUUUAUCAUG

Variants of: B1
Assay: polymerase ribozyme fitness, log enrichment relative to wild type (log ratio); higher = more active; in vitro selection for triplet polymerase activity
Summary of the method: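 Mutant libraries of each subunit of a heterodimeric triplet polymerase ribozyme were built by PCR and transcribed. Each library went through one round of in vitro selection in triplicate: annealing with biotinylated primer, partner subunit and triplets, frozen incubation at −7 °C, gel excision of extended constructs, streptavidin-bead capture and RT-PCR. Input and output libraries were Illumina-sequenced; only genotypes with ≥10 input reads and ≥1 read per output were kept. Fitness is log2(genotype enrichment/wild-type enrichment), using inverse-variance-weighted replicate averages.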

Point of comparison: GGAUCUUCUCGAUCUAACAAAAAAGACAAAUCUGCCACAAAGCUUGAGAGCAUCUUCGGAUGCAGAGGCGGCAGCUUUCGAUGGCGCGAUAGCGCCAACGUUCUCAACUAUGACACGCAAAACGCGUGCUCCGUUGAAUGGAGUUUAUCAUG, “polymerase ribozyme fitness (log ratio)” value 0.573. Against it:
- GGAUCUUCUCGAUCUAACAAAAAAGACAAAUCUGCCACAAAGCUUGAGAGCAUCUUCGGAUGCAGAGGCGGCAGCUUUCGGUGGCGCUAUCGUGCCAACGUUCUCAACUAUGACACGCAAAACGCGUGCUCCGUUGAAUCGAGUUUAUCAUG — lower, ≤ -4.2
- GGAUCUUCUCGAUCUAACAAAAAAGACAAAUCUGCCACAAAGCUUGAGAGCAUCUUCGGAUGCAGAGGCGGCAGCGUUCGGUGGCGCGAUAGCGCUAACGUUCUCAACUAUGACACGCAAAACGCGUGGUCCGUUGAAUGGAGUUUCUCAUG — lower, ≤ -4.2
- GGAUCUUCUCGAUCUAACAAAAAAGACAAAUCUGCCACAAAGCUUGAGAGCAUCUUCGGAUGCAGAGGCGGCAGCUUUCGGUGGAGCGAUAGCGCCAACGUUCUCCACUAUGACACGCAAAACGCGUGCUCCGUUGAAUGGAGUUUAUCAUG — lower, ≤ -4.2
- GGAUCUUCUCGAUCUAACAAAAAAGACAAAUCUGCCACAAAGCUUGAGAGCAUCUUCGGAUGCAGAGGCGGCAGCCAUCGGUGGUGCGAUGGCGCCAACGUUCUCAACUAUGACACGCAAAACGCGUGCUCCCUUGAAUGGGGUUUAUCAUG — lower, ≤ -4.2
- GGAUCUUCUCGAUCUAACAAAAAAGACAAAUCUGCCACAAAGCUUGAGAGCAUCUUCGGAUGCAGAGGCGGCAGCUUUCGGUGGCGCGAUAGCGCCAAAGUUCUCAACUAUGACACGCAAAACGCGUGCUCCGUUGAAUGGAGUUUAUCAUG — lower, -1.37
- GGAUCUUCUCGAUCUAACAAAAAAGACAAAUCUGCCACAAAGCUUGAGAGCAUCUUCGGAUGCAGAGGCGGCAGCUUUCGGUGGUGCGAUAGCGCCAACGUUCUCAACUAUGACACGCAAAACGCGUGCUCUCUUGAAUGGAGUUUAUCAUG — lower, ≤ -4.2
- GGAUCUUCUCGAUCUAACAAAAAAGACAAAUCUGCCACAAAGCUUGAGAGCAUCUUCGGAUGCAGAGGCGGCAGCGUUCGGUGUCGCGAUAGCGCCAACGUUCUCAACUAUGACACGCAAAACGCGUGCUCCGUUGAAUGGAGUCUAUCAUG — lower, ≤ -4.2
- GGAUCUUCUCGAUCUAACAAAAAAGACAAAUCUGCCACAAAGCUUGAGAGCAUCUUCGGAUGCAGAGGCGGCAGCGUUCGGUGGCGCGAUAGCGCCAACGUUCUCAACUAUGACGCGCAUAACGCGUGCUCCGUUGAAUGGAAUUUAUCAUG — lower, ≤ -4.2
- GGAUCUUCUCGAUCUAACAAAAAAGACAAAUCUGCCACAAAGCUUGAGAGCAUCUUCGGAUGCAGAGGCGGCAGCUUUCGGUGGCGCGAUAGCGCCAACGUUCUCAACUAUGACACGCAAAACGCGUGCUCCGUUGAAUGGAGUUUAUCUUG — higher, 0.843
- GGAUCUUCUCGAUCUAACAAAAAAGACAAAUCUGCCACAAAGCUUGAGAGCAUCUUCGGAUGCAGAGGCGGCAGCGUUCGGUGGCGCGAUAGCGCCAACGUGCUCAACUAUGACACGCAAAACGCGUGCUCCGUUGAAUGGAGUUUAUCAUG — lower, ≤ -4.2
- GGAUCUUCUCGAUCUAACAAAAAAGACAAAUCUGCCACAAAGCUUGAGAGCAUCUUCGGAUGCAGAGGCGGCAGCUAGCGGUGGCGCGAGAGCACAUACGUUCUCAACUAUGACACGCAAAACGCGUGCUCCGUUGAAUGGAGUUUAUCAUG — lower, ≤ -4.2
- GGAUCUUCUCGAUCUAACAAAAAAGACAAAUCUGCCACAAAGCUUGAGAGCAUCUUCGGAUGCAGAGGCGGCAGCGUUCGGUGGCGCGAUAGCGCCAAUGUUCUCAACUAUGACACGCAAAACGCGUGCUCCGUUGAAUGGAGUUUAUCAUG — lower, ≤ -4.2
- GGAUCUUCUCGAUCUAACAAAAAAGACAAAUCUGCCACAAAGCUUGAGAGCAUCUUCGGAUGCAGAGGCGGCAGCGUUCGAUGGCGCGAUAGCGCCAACGUUCUCAACUAUGACACGCAAAACGCGUGCUCCGUUGAAUGGAGUUUAUCAUG — lower, ≤ -4.2
- GGAUCUUCUCGAUCUAACAAAAAAGACAAAUCUGCCACAAAGCUUGAGAGCAUCUUCGGAUGCAGAGGCGGCAGCGUUCGGUGGCGCGAUAGCGCCAACGUUCUCAACUAUGACACGCAAAACGCGUGCUCCGUUGAAUGGACUUUAUCAUG — lower, ≤ -4.2
- GGAUCUUCUCGAUCUAACAAAAAAGACAAAUCUGCCACAAAGCUUGAGAGCAUCUUCGGAUGCAGAGGCGGCAGCUUGCGGUGGCGCGAUAGCGCCAACGUUCUCAACUAUGACACGCAAAACGCGUGCUCCGUUGAAUGGAGUUUAUCAUG — lower, ≤ -4.2
- GGAUCUUCUCGAUCUAACAAAAAAGACAAAUCUGCCACAAAGCUUGAGAGCAUCUUCGGAUGCAGAGGCGGCAGCUUUCGGUGGCGCGAUAGCGAUAACGUUCUCAACUAUGACACGCAAAACGCGUGCUCCGUUGAAUGGAGUUUAUCAGG — lower, ≤ -4.2
- GGAUCUUCUCGAUCUAACAAAAAAGACAAAUCUGCCACAAAGCUUGAGAGCAUCUUCGGAUGCAGAGGCGGCAGCUUUCGGUGGUGCGAUAUCGCCAACGUGCUCAACUAUGACACGCAAAACGCGUGCUCCGUUGAUUGGACUUUAUCAUG — lower, ≤ -4.2
- GGAUCUUCUCGAUCUAACAAAAAAGACAAAUCUGCCACAAAGCUUGAGAGCAUCUUCGGAUGCAGAGGCGGCAGCGUUUGGUGGCGCGAUAGUGCCAACGUUCUCAACUUUGACACGCAAAACGCGUGCUCCGUUGAAGGGAGUUUAUCAUG — lower, ≤ -4.2
